Among all 45,000 compounds or so, about 65 (0.1%) were called active. Calls follow the shape of the dose curve; as a rule, active = well fitted activation curve with a large enough effect; inconclusive = small, poorly fitted or top-dose-only effect; inactive = no such curve, though single readings can be large or run the other way. The list shows a part of the results.
Target: Galactocerebrosidase (Homo sapiens) (UniProt P54803)
Test: A Novel Cell-Based Assay to Identify Small Molecules for B -Galactocerebrosidase; also: 0% is about no effect; nearly all actives have a fitted effect of over 65% in size
Conditions: 145M-Twi-hGALC-G270D cells, HMU-beta-Gal fluorescence, 48 h; series mostly up to 57.5 µM; activation: at the top concentration
In short: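 qHTS, 1536-well; 145M-Twi-hGALC-G270D cells (WT line also made) in DMEM/F12 + 10% FBS; compound incubation on live cells; HMU-β-gal 0.1 mM final, pH 5.2, NaTC; carbonate stop; fluorescence increase = enhanced residual activity.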

UniProt P54803, sequence (P54803 whole entry, looked up): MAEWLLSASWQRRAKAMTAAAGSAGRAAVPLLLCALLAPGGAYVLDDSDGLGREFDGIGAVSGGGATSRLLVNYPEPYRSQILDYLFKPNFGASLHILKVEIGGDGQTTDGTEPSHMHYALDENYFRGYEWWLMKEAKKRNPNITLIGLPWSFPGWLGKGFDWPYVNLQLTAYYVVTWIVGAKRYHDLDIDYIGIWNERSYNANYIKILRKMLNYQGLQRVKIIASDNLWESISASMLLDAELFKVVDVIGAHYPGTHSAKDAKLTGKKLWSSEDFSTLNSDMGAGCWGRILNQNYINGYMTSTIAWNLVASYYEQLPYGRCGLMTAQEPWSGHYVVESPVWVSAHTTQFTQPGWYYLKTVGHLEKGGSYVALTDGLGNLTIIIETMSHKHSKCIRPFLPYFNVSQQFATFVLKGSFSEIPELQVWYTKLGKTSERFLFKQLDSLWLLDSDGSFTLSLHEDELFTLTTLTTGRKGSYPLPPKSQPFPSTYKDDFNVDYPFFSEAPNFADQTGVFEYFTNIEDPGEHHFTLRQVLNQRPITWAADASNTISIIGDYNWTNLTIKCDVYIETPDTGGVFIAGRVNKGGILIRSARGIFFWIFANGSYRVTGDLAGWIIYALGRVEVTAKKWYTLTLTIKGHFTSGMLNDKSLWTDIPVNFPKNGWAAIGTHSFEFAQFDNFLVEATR

activation, inactive:
COc1ccc(OC)c(NC(=O)CSc2ccnc(=O)[nH]2)c1 -14%
COc1ccc(NC(=O)c2c(NCc3ccc(C)o3)sc3c2CCC(C)C3)c(OC)c1 (centres undefined) -9.64%
Cn1c(=O)oc2cc(S(=O)(=O)CCC(=O)N3CCN(c4ccccc4)CC3)ccc21 -18.3%
COc1ccccc1-c1cc(C(=O)Nc2sc3c(c2C#N)CCCC3)no1 -18.5%
CCOc1ccc(CCNC(=O)CN2C(=O)C(CC)Oc3ccccc32)cc1OCC (centres undefined) -1.74%
COc1ccc(C(=O)NCc2nnc(SCC(=O)Nc3ccccc3)n2-c2ccc(F)cc2)cc1 15.2%
CC(C)NCC(O)COc1cccc2[nH]ccc12 (centres undefined) -7.6%
COC(=O)c1c(-c2ccc(Cl)cc2)noc1N1CCN(c2ccc(OC)cc2)CC1 -13.1%
Cc1ccc2c(c1)NC(=O)C(CC(=O)Nc1cc(Cl)ccc1C)O2 (centres undefined) -15.4%
COc1ccc(C2CC(c3c(O)n(C4CCCCC4)c(=O)[nH]c3=O)=Nc3ccccc3S2)cc1 (centres undefined) 1.64%
COc1ccccc1N1CCN(S(=O)(=O)c2c(C)sc3ncn(CC(=O)Nc4cccc(Cl)c4)c(=O)c23)CC1 -22.6%
O=C(Nc1ccc(Br)cc1)C1CCN(c2cnccn2)CC1 -15.2%
COc1cc(OC)c(Nc2cc(C)nc3ncnn23)cc1Cl -5.33%
CCc1nn2c(=O)cc(COC(=O)CNC(=O)c3ccccc3)nc2s1 7.05%
O=C(COc1ccccc1F)OCc1cc(=O)n2nc(-c3cccs3)sc2n1 -8.56%
CCC(C(=O)N1CCN(c2ccccc2)CC1)n1nc(C)n2c(cc3sccc32)c1=O (centres undefined) -11.3%
COc1ccccc1CNC(=O)c1ccc(N2CCCC2)c(NC(=O)NCc2ccccc2)c1 -6.51%
CCN(CC)S(=O)(=O)c1nnc(NC(=O)COc2ccccc2Cl)s1 -15.7%
CCOc1ccc(C(=O)Nc2cccc(NC(=O)c3ccco3)c2)cc1Cl -22.6%
CC1CCCCN1CCCNC(=O)Cn1ncc2c([nH]c3ccccc32)c1=O (centres undefined) -13.8%
Cc1cccc(CNS(=O)(=O)c2ccc3[nH]c(=O)ccc3c2)c1 -8.39%
NC(=O)c1cc(S(=O)(=O)N2CCN(c3ccc(F)cc3)CC2)cs1 -3.05%
CCC(CC)c1nn2c(=O)cc(COc3ccc(NC(=O)c4ccccc4Cl)cc3)nc2s1 8.94%
Cc1ccccc1CNC(=O)C1CCN(c2nn3cc(-c4ccc(F)cc4)nc3s2)CC1 -10.5%
COc1ccc(C)cc1NC(=O)c1cc(S(=O)(=O)NC2CCCCCC2)ccc1F -1.59%
COc1ccc(Cn2c(=O)[nH]c3cc(C(=O)N4CCN(c5cc(C)ccc5C)CC4)ccc3c2=O)cc1 -14.7%
CC(=O)c1cc(-c2ccccc2)n(CC(=O)NC2CCCCC2)c1C -8.98%
CC(C)Cn1c(=O)c2ccccc2n2c(CCC(=O)Nc3cccc(Cl)c3)nnc12 -11.7%
CCOC(=O)c1cnc2cc(-c3ccc(Cl)cc3)nn2c1-c1ccccc1 -9.86%
COc1ccc(-c2cnnn2-c2ccc(NC(=O)c3c(F)cccc3F)cc2)cc1 0.0993%
COc1ccc(-c2cnnn2-c2ccc(NC(=O)c3ccc(S(=O)(=O)N(C)C)cc3)cc2)cc1 -13.3%
O=C(Cc1ccc(F)cc1)NC1CC(=O)N(c2ccccc2)C1 (centres undefined) -7.71%
CCOc1ccc(Cn2nnc3c(=O)[nH]c(C4CCN(C(=O)c5ccccc5)CC4)nc32)cc1 -10.9%
CCCOc1ccc(-c2nn(-c3ccccc3)cc2C2NC(=O)NC(C)=C2C(=O)OC(C)C)cc1 (centres undefined) -21.9%
O=C1Nc2c(c(=O)[nH]c(=O)n2-c2ccccc2)C1(NS(=O)(=O)c1ccc(Cl)cc1)C(F)(F)F (centres undefined) -10.2%
OC(CCN1CCCC1)(c1ccccc1)C1CCCCC1 (centres undefined) -13.2%
CCOc1ccccc1/C=C/c1onc(C)c1S(=O)(=O)N1CCC(C(=O)N(CC)CC)CC1 -4.85%
Cc1ccc(NC(=O)Cn2c(=O)n(CCCCCC(=O)NCc3ccc(F)cc3)c(=O)c3sccc32)cc1C -13.7%
CCc1nnc(SCC(=O)Nc2ccc(F)cc2F)c2cc3sc(C)cc3n12 -15.4%
COc1ccc(F)cc1S(=O)(=O)NCCc1sc2nc(-c3ccc(F)cc3)nn2c1C -12.3%
Cc1cc(C)cc(Oc2nc3c(c(=O)n(C)c(=O)n3C)n2Cc2ccc(F)cc2)c1 -17%
CCOC(=O)c1ccccc1NC(=O)N(C)CCc1c(C)nn(CC)c1C -6.51%
COc1ccc(N2CCN(c3oc(/C=C/c4cc(OC)c(OC)c(OC)c4)nc3C#N)CC2)cc1 -9.27%
COc1cc(C(=O)Nc2ccc3oc(-c4ccc(C)c(Br)c4)nc3c2)cc(OC)c1OC -20.5%
CCc1cccc(C)c1NC(=O)CSc1nnc(CC)n2c1cc1occc12 -16.3%
Cc1cc(C)c2c(CC(=O)Nc3c(C(=O)Nc4ccc(Cl)cc4)oc4ccccc34)coc2c1 -24.7%
COc1ccc(CNC(=O)CN2C(=O)c3cccnc3Oc3ccc(C)cc32)cc1 0.615%
Cc1cc(OCC(=O)N(Cc2sccc2C)C2CCS(=O)(=O)C2)ccc1Cl (centres undefined) -14.9%
COc1ccc(Nc2cc(C(=O)NCc3ccccc3OC)c3ccccc3n2)cc1 -14.8%
Cc1cc(Nc2cccc(Cl)c2)nc2ccc(NC(=O)c3cccnc3)cc12 -13.8%
CCCSCCCNC(=O)c1ccc2nc(Cc3ccccc3)oc2c1 -7.48%
CCSc1ncc(Cl)c(C(=O)Nc2ccc(S(=O)(=O)N(C)c3ccccc3)cc2)n1 -18.3%
O=C(NCCc1ccccc1)c1cnn(-c2ccc(F)cc2)c1-n1cccc1 -12.3%
CCOC(=O)N1CCc2c(sc3c2c(=O)n(CCc2ccccc2)c(=O)n3Cc2c(F)cccc2Cl)C1 -5.05%
CCc1ccc(CNC(=O)CN2CCSc3ccccc32)cc1 -24.4%
Cc1ccc(NC(=O)C(=O)NCC2(c3ccccc3)CCCC2)cc1Cl -12.2%
O=C(CN1C(=O)COc2ccc(S(=O)(=O)N3CCCCCC3)cc21)NCc1ccc(F)cc1 -4.45%
Cc1ccc(NC(=O)CSc2nc3n[nH]c(C)c3c(=N)n2-c2cccc(C)c2)cc1 -4.01%
Cn1c(=O)oc2cc(S(=O)(=O)Nc3ccc(C(=O)O)cc3)ccc21 -19.1%
CCC(=O)N1CCc2cc(Br)cc(S(=O)(=O)N3CCCC(C(=O)N(C)c4ccc(Br)cc4)C3)c21 (centres undefined) -3.3%
Cc1cc(C)cc(OCC(=O)Nc2ccc(-c3nc4ccccc4o3)cc2)c1 -9.07%
Cc1cc(C)c2c(CC(=O)N(Cc3ccccc3)C3CCS(=O)(=O)C3)coc2c1 (centres undefined) -8.79%
CCC(=O)N1CCc2cc(S(=O)(=O)NC(C(=O)Nc3ccc(C(C)=O)cc3)C(C)C)ccc21 (centres undefined) -17.5%
COc1ccccc1CNC(=O)c1ccc(-c2nc(CN3CCc4ccccc43)c(C)o2)cc1 -37.6%
COc1ccc(NC(=O)c2cccn2-c2nnc(N3CCCCC3)s2)cc1 -11.1%
Cc1ccc(Cl)cc1N1CCN(c2ncnc3onc(C)c23)CC1 -27.6%
CCOC(=O)C1CCCN(c2nc3c(S(=O)(=O)c4ccc(C)c(C)c4)nnn3c3ccc(Cl)cc23)C1 (centres undefined) 11.5%
CCn1c(=O)c2sccc2n2c(CCC(=O)Nc3cc(C)cc(C)c3)nnc12 -8.4%
COc1cccc(C(=O)Nc2cc3c(cc2C(=O)c2ccc(C)cc2)OCCO3)c1 -17.1%
COc1ccc(-c2nc(CS(=O)CC(=O)NCc3ccccc3OC)c(C)o2)cc1 (centres undefined) -14.8%
Clc1ccc(N2CCN(c3ncnc4c3nc3n4CCCC3)CC2)cc1 -22.5%
COc1cccc(N2CCN(C(=O)C3CCN(S(=O)(=O)c4ccc5c(c4)oc(=O)n5C)CC3)CC2)c1 -10.9%
COc1ccc2c(c1)CC(C(=O)NCCCN1CCN(c3ccc(F)cc3)CC1)CO2 (centres undefined) -0.833%
CCOC(=O)c1ccc(N2C(=O)c3n[nH]c(-c4cccs4)c3C2c2ccc(C(C)(C)C)cc2)cc1 (centres undefined) -21.1%
O=C(Nc1nc2n(n1)C(c1ccccc1)C=C(c1ccccc1)N2)c1ccc(Cl)c([N+](=O)[O-])c1 (centres undefined) -19.5%
CCOc1ccccc1NC(=O)Cn1c(=O)n(Cc2ccccc2)c(=O)c2c(C)c(C)sc21 -17.8%
CCc1cccc(NC(=O)Cn2nc(-c3ccc(OC)cc3)ccc2=O)c1 -15.3%
CCC(C)NC(=O)Cn1ncc2c([nH]c3ccc(C)cc32)c1=O (centres undefined) -5.89%
COc1cccc(-c2ccc3c(N)c(C(=O)c4ccc(Cl)cc4)sc3n2)c1 -9.51%
Cc1cccc(C)c1Nc1sc(C(=O)c2ccccc2)c(N)c1C(=O)Nc1ccc(F)cc1 -18.9%
CC(C)OCCCNC(=O)c1cc2c(-c3ccc(Cl)cc3)nn(C)c2s1 3.38%
CCCCC(Sc1nc2cc3c(cc2c(=O)n1CCCC(=O)NCc1ccc(OC)cc1)OCO3)C(=O)OCC (centres undefined) -11.3%
COc1cc(NC(=O)C2CCCN(S(=O)(=O)c3ccc4c(c3)oc(=O)n4C)C2)c(C(=O)O)cc1OC (centres undefined) -15.7%
Cc1ccc(NC(=O)c2c(C)oc3ccc(O)c(CN4CCCCCC4)c23)c(C)c1 -14.3%
CCOC(=O)c1[nH]c(C)c(CCC(=O)NCc2ccc(OCC)cc2)c1C -11.6%
O=C(NCc1ccccc1F)c1ccc(CN2CC(=O)N3CCCCC3C2=O)cc1 (centres undefined) -12.4%
Cc1cc(C)c(NC(=O)Cn2c(=O)n(Cc3ccc4c(c3)OCO4)c(=O)c3ccc(C(=O)NC4CCCCC4)cc32)c(C)c1 -14.7%
CCc1ccc(NC(=O)C(=O)NCCc2csc(-c3ccc(C(F)(F)F)cc3)n2)cc1 -1.1%
CCOC(=O)c1sc2cccc(F)c2c1S(=O)(=O)N1CCN(c2cccc(Cl)c2)CC1 -2.55%
CCc1ccc(CNC(=O)c2cnc3sc4cc(OC)ccc4n3c2=O)cc1 -9.07%
CCCn1c2ccccc2c2cnn(CC(=O)N3CCC(C)CC3)c(=O)c21 -11.5%
COc1cccc(C(=O)N2c3cc(C)ccc3C(C)(c3ccccc3)CC2(C)C)c1 (centres undefined) -19.2%
N#C/C(=C\c1ccc(Cl)cc1)c1nc(-c2cc3ccccc3oc2=O)cs1 -8.42%
COc1ccccc1NC(=O)c1cc2c(=O)oc3ccc(C)cc3c2s1 -24.2%

From PubChem BioAssay AID1159614 (National Center for Advancing Translational Sciences (NCATS), 2016)
